Measured values published in the supplement of paper PMC10326071.
Values joined by “and” are separate entries in the source; they are usually repeats but may differ in a detail not shown here. Equal entries are not always repeated. The list shows a part of the results. Many values rest on one well or one pass, so single values are uncertain.

These molecules were tested on SARS-CoV-2 nsp3 SARS-unique domain core (SUD-core, nsp3 residues 413-676) (assay: dissociation rate constant koff (BLI); higher = faster dissociation). Details: 100 µM; 25 °C.
Description: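 Primary BLI (Octet RED96e) screen of MedChemExpress Nucleotide Compound and Kinase Inhibitor libraries (1770 compounds) against biotinylated SARS-CoV-2 SUD-core on SSA biosensors. Each compound was tested once at 100 uM in PBS pH 7.4, 1% DMSO; 150 s association, 180 s dissociation, 25 C. Kd and koff are apparent values from single-concentration 1:1 fits. Only fits with full R^2 >= 0.9 are kept; fits at the software floor (<1e-12 M, <1e-7 /s) and placeholder values are excluded.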

Row | Compound | dissociation rate constant koff
1 | CC(C)c1c2cc(-c3ccnc(NC4CCC(NC5CCOCC5)CC4)n3)ccc2nn1C (stereo not given) | 0.142 s⁻¹
2 | CCc1cc2c(cc1-c1cnn(CC(=O)N(C)C)c1)C(C)(C)c1[nH]c3cc(C#N)ccc3c1C2=O | 0.307 s⁻¹
3 | C[C@H](Nc1cc(-c2cnn(C)c2)cc(Nc2cnccn2)n1)c1ccc(F)cc1 | 0.0857 s⁻¹ and 0.0501 s⁻¹
4 | CC#CC(=O)N1CC[C@@H](n2c(=O)n(-c3ccc(Oc4ccccc4)cc3)c3c(N)ncnc32)C1 | 0.414 s⁻¹
5 | CN[C@@H]1C[C@H]2O[C@@](C)([C@@H]1OC)n1c3ccccc3c3c4c(c5c6ccccc6n2c5c31)C(=O)NC4 | 0.179 s⁻¹
6 | Nc1ncnc2nc(-c3ccc(N4CCOCC4)nc3)cc(-c3cccc(Br)c3)c12 | 0.144 s⁻¹
7 | NC(=O)c1ccccc1Nc1ccnc(Nc2cccc(O)c2)n1 | 1.17 s⁻¹
8 | C#C[C@@]1(O)[C@@H](CO)O[C@@H](n2ccc(N)nc2=O)[C@@H]1O | 0.0161 s⁻¹
9 | O=C(NOCCO)c1ccc2cncn2c1Nc1ccc(I)cc1F | 0.00787 s⁻¹
10 | CC(c1ccc(-c2cnc3c(-c4ccc(S(N)(=O)=O)c5ccccc45)cnn3c2)cc1)N1CCCC1 (stereo not given) | 0.122 s⁻¹
11 | O=c1[nH]c(=O)c2ncn([C@@H]3O[C@H](CO)[C@@H](O)[C@H]3O)c2[nH]1 | 0.0131 s⁻¹
12 | N#CC(c1ccnc(OCc2ccc(CN3CCOCC3)cc2)n1)c1nc2ccccc2s1 (stereo not given) | 0.0169 s⁻¹
13 | COc1cc2c(Oc3ccc4[nH]c(C)cc4c3F)ncnc2cc1OCCCN1CCCC1 | 0.0313 s⁻¹
14 | Cc1nc(-c2cnn(C)c2)nc2c1[nH]c1ncc(-c3ccc(N4CCN(C)CC4)cc3)cc12 | 0.401 s⁻¹
15 | CCN(C)C(=O)c1ccc2c(C(=Nc3ccc(CN4CCCCC4)cc3)c3ccccc3)c(O)[nH]c2c1 | 0.688 s⁻¹
16 | CCCCCCCCCCCCCCCCOP(=O)([O-])OCC[N+](C)(C)C | 0.0351 s⁻¹
17 | O=C(NC1CCOCC1)c1ccc(-c2cc(-c3cn[nH]c3-c3ccccn3)ccn2)cc1 | 0.00436 s⁻¹
18 | Cc1ccc2c(NS(=O)(=O)c3ccccc3Cl)cccc2c1Oc1ncccc1-c1ccnc(N[C@H]2CCCNC2)n1 | 0.123 s⁻¹
19 | COc1ccc(C(OC[C@H]2O[C@@H](n3cnc4c(=O)[nH]cnc43)C[C@@H]2O)(c2ccccc2)c2ccc(OC)cc2)cc1 | 0.0837 s⁻¹
20 | COc1c(B(O)O)cccc1-c1nc2ccc3[nH]ncc3c2c2c1CCC2 | 0.0445 s⁻¹

Row | Compound | dissociation rate constant koff
21 | CC(C)Oc1cc(Nc2nc(N[C@@H](C)c3ccc(F)cn3)ncc2Cl)[nH]n1 | 0.119 s⁻¹
22 | CC(C)c1cc(/C=C(\C#N)C(=O)NCCCc2ccccc2)cc(C(C)C)c1O | 0.0319 s⁻¹
23 | O=C(Nc1cccc(-c2nncn2C2CC2)c1)c1cc(-n2cnc(C3CC3)c2)ccn1 | 0.171 s⁻¹
24 | C=CC(=O)Nc1cc(Nc2ncc(C(=O)OC(C)C)c(-c3cn(C)c4ccccc34)n2)c(OC)cc1N(C)CCN(C)C | 1.09 s⁻¹
25 | N=c1ccn2c(n1)O[C@H]1[C@H](O)[C@@H](CO)O[C@H]12 | 0.0256 s⁻¹
26 | COc1cc2ncnc(Nc3ccc(F)c(Cl)c3)c2cc1NC(=O)/C=C/CN1CCCCC1 | 0.265 s⁻¹
27 | CCCCCCCCCCCCCCCCCCCCCC(=O)Nc1ccn([C@@H]2O[C@H](CO)[C@@H](O)[C@@H]2O)c(=O)n1 | 0.449 s⁻¹
28 | O=c1cc(N2CCOCC2)oc2c(-c3ccccc3)cccc12 | 0.0659 s⁻¹
29 | C[C@@H](Oc1ccc2[nH]nc(/C=C/c3cnn(CCO)c3)c2c1)c1c(Cl)cncc1Cl | 0.047 s⁻¹
30 | Nc1nc2c(ncn2[C@@H]2O[C@H](CO)[C@@H](O)[C@H]2F)c(=O)[nH]1 | 0.0452 s⁻¹
31 | Nc1nc2c(ncn2[C@@H]2O[C@H](COP(=O)(O)OP(=O)(O)OP(=O)(O)O)[C@@H](O)[C@H]2O)c(=O)[nH]1 | 0.0343 s⁻¹
32 | COc1c(C)c(C(=O)c2ccc(N)c(C(=O)O)c2)n2ccccc12 | 0.0998 s⁻¹
33 | Nc1ncnc2c1ccn2[C@@H]1O[C@H](CO)[C@@H](O)[C@H]1O | 0.016 s⁻¹
34 | CN1CCN(Cc2ccc(-c3cn(C4CCC(O)CC4)c4nc(NCCC5CC5)ncc34)cc2)CC1 (stereo not given) | 0.0601 s⁻¹
35 | O=C(CCCCCn1cc(Nc2ncc(Cl)c(Nc3ccc(Cl)cc3)n2)cn1)NO | 0.412 s⁻¹
36 | CSC[C@H]1O[C@@H](n2cnc3c(N)ncnc32)[C@H](O)[C@@H]1O | 0.0142 s⁻¹
37 | CCCCCC1CC1CC1CC1CCCCCCCC(=O)OC (stereo not given) | 0.00126 s⁻¹
38 | Cc1cnc(Nc2ccc(F)cc2Cl)nc1-c1c[nH]c(C(=O)N[C@H](CO)c2cccc(Cl)c2)c1 | 0.0442 s⁻¹
39 | O=C1Nc2nc(-c3c(O)cccc3OCC3CC3)cc([C@@H]3CCCNC3)c2CO1 | 1.4 s⁻¹
40 | O=C1c2c(O)cc(O)cc2O[C@H](c2cc(O)c(O)c(O)c2)[C@H]1O | 0.00379 s⁻¹
